Laboratory results taken from patent US20170082633A1 (WHITEHEAD INSTITUTE FOR BIOMEDICAL RESEARCH, published 2017).

What was measured:
Assay in all cases: FLAG IP from transfected HEK-293T cells, immunoblot
FLAG-metap2 = target: T1, FLAG-metap2 (UniProt P50579 1-478)
T1 construct: Control bait; also called control protein Metap2
Protocol: (§1) HEK-293T cells were cultured in DMEM supplemented with 10% inactivated fetal bovine serum, penicillin (100 IU/mL), and streptomycin (100 μg/mL) and maintained at 37° C. and 5% CO₂. Two million HEK-293T cells were plated in 10 cm culture dishes.
(§2) Transfection mixes were taken up to a total of 5 μg of DNA using empty pRK5. HEK-293T cells stably expressing FLAG-tagged proteins were rinsed once with ice-cold PBS and lysed in ice-cold lysis buffer (40 mM HEPES pH 7.4, 1% Triton X-100, 10 mM β-glycerol phosphate, 10 mM pyrophosphate, 2.5 mM MgC12 and 1 tablet of EDTA-free protease inhibitor (Roche) per 25 ml buffer). The soluble fractions from cell lysates were isolated by centrifugation at 13,000 rpm for 10 min in a microcentrifuge. […] Immunoprecipitates were washed three times with lysis buffer containing 500 mM NaCl. Immunoprecipitated proteins were denatured by the addition of 50 μL of sample buffer and incubation at RT for 30 min. It is critical that the samples containing SLC38A9 are neither boiled nor frozen prior to resolution by SDS-PAGE and analysis by immunoblotting. A similar protocol was employed when preparing samples for mass spectrometry.

FLAG-SLC38A9.4 = target: T2, FLAG-SLC38A9.4 (human, UniProt Q8NBW4 120-561)
T2 construct: also called SLC38A9 isoform 4; isoform 4
T2 sequence: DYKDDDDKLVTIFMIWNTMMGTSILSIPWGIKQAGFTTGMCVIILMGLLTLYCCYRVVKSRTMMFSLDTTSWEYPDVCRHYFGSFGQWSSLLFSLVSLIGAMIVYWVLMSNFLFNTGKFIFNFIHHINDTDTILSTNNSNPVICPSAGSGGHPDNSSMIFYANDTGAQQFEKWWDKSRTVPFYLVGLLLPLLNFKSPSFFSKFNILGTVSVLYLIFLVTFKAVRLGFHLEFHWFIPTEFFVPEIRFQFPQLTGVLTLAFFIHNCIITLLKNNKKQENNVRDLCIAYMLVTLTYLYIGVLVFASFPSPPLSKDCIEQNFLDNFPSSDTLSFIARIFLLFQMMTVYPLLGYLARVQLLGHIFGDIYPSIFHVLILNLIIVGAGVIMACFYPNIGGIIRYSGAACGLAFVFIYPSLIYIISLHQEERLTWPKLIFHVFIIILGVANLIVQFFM
Protocol: as §1, §2

FLAG-SLC38A9.1 Δ110 = target: T3, FLAG-SLC38A9.1 Δ110 (human, UniProt Q8NBW4 111-561)
T3 construct: also called SLC38A9 Δ110
T3 sequence: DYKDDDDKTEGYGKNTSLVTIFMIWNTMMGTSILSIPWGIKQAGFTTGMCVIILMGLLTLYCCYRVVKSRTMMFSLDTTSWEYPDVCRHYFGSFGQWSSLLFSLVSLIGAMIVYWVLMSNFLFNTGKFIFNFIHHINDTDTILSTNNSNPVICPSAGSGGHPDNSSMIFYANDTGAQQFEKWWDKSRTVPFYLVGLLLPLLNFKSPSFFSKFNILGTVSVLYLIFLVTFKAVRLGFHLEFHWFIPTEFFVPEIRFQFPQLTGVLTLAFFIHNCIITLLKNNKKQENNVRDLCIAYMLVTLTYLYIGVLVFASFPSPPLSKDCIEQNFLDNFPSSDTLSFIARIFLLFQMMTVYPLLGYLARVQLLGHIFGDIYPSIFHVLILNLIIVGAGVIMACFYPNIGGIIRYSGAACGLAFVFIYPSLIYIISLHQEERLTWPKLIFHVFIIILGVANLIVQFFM
Protocol: as §1, §2

binding result (FLAG-metap2): no binding
binding result (FLAG-SLC38A9.4): no binding
binding result (FLAG-SLC38A9.1 Δ110): no binding
B1: endogenous RagC (enzyme)
chain: not shown
notes: Detected by immunoblot in anti-FLAG immunoprecipitates; also called RagC GTPase
